In ChEMBL document CHEMBL4888484, “Replenishing the malaria drug discovery pipeline: Screening and hit evaluation of the MMV Hit Generation Library 1 (HGL1) against asexual blood stage Plasmodium falciparum ,using a nano luciferase reporter read-out” (2022):
In all, about 150,000 compounds went through this assay and about 540 (0.36%) showed an effect of 50% or more. The list shows a part of the results.

These molecules were tested on Plasmodium falciparum (assay: Primary screen in NF54 nanoGlo assay, in single point, at 2uM, 72h; a lower Z score goes with more inhibition). Conditions: timepoint 72 hour.
Type: functional, Erythrocyte

**Q.** How did the “% Inhibition” value turn out when `C[C@H](OC(=O)c1ccc(C(N)=O)cc1)C(F)(F)F` was run?
**A.** Its value is -3%.

**Q.** What about the Z score of the same molecule?
**A.** Its Z score is 0.53.

**Q.** What does the source list for `Cn1cc(NC(=O)NC2CCN(Cc3ccccc3)CC2)ccc1=O`?
**A.** % Inhibition: -10%; Z score: 1.31

**Q.** Which results are given for `Cc1nn(C)c2c1C[C@H](Nc1cnccn1)CN2`?
**A.** % Inhibition: -6%; Z score: 1.15

**Q.** `Cc1cc2[nH]c(C(=O)Nc3ccccc3F)c(CN3CCCC3)c2s1` was tested. Which “% Inhibition” value did it give?
**A.** The value was -12%.

**Q.** What about the Z score of the same molecule?
**A.** The Z score was 1.2.

**Q.** With `CC[C@@H](C(=O)NCCC1CCN(C)CC1)N(c1ccc(C)cc1)S(C)(=O)=O` as the molecule, how does the “% Inhibition” value read?
**A.** The value was -4%.

**Q.** What about the Z score of the same molecule?
**A.** Its Z score is 0.62.

**Q.** What does the source list for `O=C(NCc1ccccc1F)C1CCN(c2cncnc2N2CCCC2)CC1`?
**A.** % Inhibition: 38%; Z score: -1.76

**Q.** For `Fc1ccc(OC[C@H]2CCCN2)cc1Cl`, which “% Inhibition” value is on record?
**A.** Its value is 1%.

**Q.** And the Z score?
**A.** The Z score was -0.19.

**Q.** Which results are given for `CC1(C)CC(c2ccccc2)N(C(=O)C2CCc3nncn3C2)C1` (configuration not stated)?
**A.** % Inhibition: -6%; Z score: 1.14

**Q.** Which results are given for `Cn1nc(C2CCN(C(=O)c3ccco3)CC2)c2c1CCOC2`?
**A.** % Inhibition: -8%; Z score: 1.03

**Q.** Which results are given for `CCc1[nH]nc(-c2ccc(F)c(F)c2)c1NC(=O)c1ccc(Cl)cc1`?
**A.** % Inhibition: -9%; Z score: 1.36

**Q.** What does the source list for `c1ccc(-c2cnc3n2C[C@H](CNC2CCCC2)OC3)cc1`?
**A.** % Inhibition: 8%; Z score: -1.18

**Q.** For `Cn1ccnc1C1(O)CN(C(=O)OCC(F)(F)F)C1`, which “% Inhibition” value is on record?
**A.** Its value is 1%.

**Q.** And the Z score?
**A.** The Z score was -0.2.

**Q.** What does the source list for `Cc1ccc(C[C@H](Nc2ncnc3onc(C)c23)c2ccccn2)cc1`?
**A.** % Inhibition: -1%; Z score: 0.14

**Q.** Which “% Inhibition” value does the source give for `CC1CCCCC1N(C)C(=O)c1cccc[n+]1[O-]` (configuration not stated) here?
**A.** Its value is 2%.

**Q.** And the Z score?
**A.** Its Z score is -0.26.

**Q.** What does the source list for `Cc1cc(F)cc2c1N(CC(=O)N1CCC[C@H](C(N)=O)C1)CCC2`?
**A.** % Inhibition: 8%; Z score: -1.08

**Q.** `Cc1ccc(NC(=O)CN(Cc2cocn2)Cc2cocn2)cc1F` was tested. Which “% Inhibition” value did it give?
**A.** Its value is 3%.

**Q.** And the Z score?
**A.** The Z score was -0.37.

**Q.** With `NC(=O)NCCc1ccc(F)c(F)c1F` as the molecule, how does the “% Inhibition” value read?
**A.** Its value is -2%.

**Q.** And the Z score?
**A.** Its Z score is 0.23.

**Q.** How did the “% Inhibition” value turn out when `CNS(=O)(=O)CCNC(=O)Nc1cc2c(cc1N(C)C)n(C)c(=O)n2C` was run?
**A.** Its value is -6%.

**Q.** What about the Z score of the same molecule?
**A.** Its Z score is 0.7.

**Q.** How did the “% Inhibition” value turn out when `Cc1nn(C)c(C)c1C(=O)Oc1ccc2cn[nH]c2c1` was run?
**A.** The value was -4%.

**Q.** And the Z score?
**A.** The Z score was 0.46.

**Q.** With `CC(=O)c1ccc(S(=O)(=O)N2CCC[C@H](C(=O)c3cccc(OC(C)C)c3)C2)cc1` as the molecule, how does the “% Inhibition” value read?
**A.** Its value is 2%.

**Q.** What about the Z score of the same molecule?
**A.** The Z score was -0.14.

**Q.** Which results are given for `Cc1cccc(N2CCC(N[C@H]3CCCCNC3=O)CC2)c1C`?
**A.** % Inhibition: 15%; Z score: -2.05

**Q.** Which results are given for `COc1cc2c(cc1OC)CN(c1cc(C3CC(O)C3)ncn1)CC2` (configuration not stated)?
**A.** % Inhibition: -2%; Z score: 0.24

**Q.** How did the “% Inhibition” value turn out when `C[C@H](N)C(=O)N1CCCC1Cc1ccc2ccccc2c1` (some centres not stated) was run?
**A.** Its value is -4%.

**Q.** What about the Z score of the same molecule?
**A.** The Z score was 0.33.

**Q.** Which “% Inhibition” value does the source give for `Cc1nn(C)c(C)c1-c1cc(C(=O)Nc2cc(F)ccc2F)c2c(C)nn(C)c2n1` here?
**A.** Its value is 32%.

**Q.** And the Z score?
**A.** The Z score was -0.15.

**Q.** What does the source list for `C[C@@H](CNC(=O)N1CCN(Cc2ccc3c(c2)OCO3)CC1)n1ccnc1`?
**A.** % Inhibition: -13%; Z score: 2.2

**Q.** How did the “% Inhibition” value turn out when `CCN(CC)S(=O)(=O)NC1CCCCCC1` was run?
**A.** Its value is -15%.

**Q.** What about the Z score of the same molecule?
**A.** Its Z score is 1.5.

**Q.** What does the source list for `O=C(C[C@@H]1C=CCC1)NC1CCCCC1`?
**A.** % Inhibition: -12%; Z score: 1.46

**Q.** Which results are given for `C=CCNC(=O)CN(C)Cc1snnc1C`?
**A.** % Inhibition: -10%; Z score: 1.48

**Q.** How did the “% Inhibition” value turn out when `CCc1cnc(NC(=O)CCOCC(F)(F)F)s1` was run?
**A.** Its value is -5%.

**Q.** What about the Z score of the same molecule?
**A.** The Z score was 0.9.

**Q.** With `Cc1csc([C@@H](C#N)C(=O)c2cnc(Oc3ccccc3)cn2)n1` as the molecule, how does the “% Inhibition” value read?
**A.** Its value is -15%.

**Q.** And the Z score?
**A.** Its Z score is 1.51.

**Q.** What does the source list for `O=S(=O)(NCc1ccc(N2CCCC2)cc1)c1ccc(Cl)cc1`?
**A.** % Inhibition: -16%; Z score: 1.48

**Q.** How did the “% Inhibition” value turn out when `C[C@H](Oc1ccc(Cl)c(Cl)c1)C(=O)NC(N)=O` was run?
**A.** Its value is -32%.

**Q.** What about the Z score of the same molecule?
**A.** Its Z score is 3.77.

**Q.** For `CCc1ccc(C(=O)NS(=O)(=O)N2CCN(Cc3ccccc3)CC2)o1`, which “% Inhibition” value is on record?
**A.** The value was -9%.

**Q.** And the Z score?
**A.** The Z score was 0.81.

**Q.** Which results are given for `O=C(NCCc1ccco1)c1cc(N2CCOCC2)ncn1`?
**A.** % Inhibition: -5%; Z score: 1

**Q.** What does the source list for `CN(Cc1ccc(-n2cccn2)cc1)S(=O)(=O)N1CCC(C)(C)CC1`?
**A.** % Inhibition: -8%; Z score: 1.55

**Q.** For `N#CC1(NC(=O)Cn2nnc3ccccc32)CCC1`, which “% Inhibition” value is on record?
**A.** The value was 0%.

**Q.** And the Z score?
**A.** Its Z score is -0.01.

**Q.** For `O=S(=O)(N[C@H]1CCN(c2nccs2)C1)c1ccccc1`, which “% Inhibition” value is on record?
**A.** Its value is -8%.

**Q.** And the Z score?
**A.** The Z score was 1.44.

**Q.** Which results are given for `Cc1cc(NC(=O)CCN2C[C@H](F)C[C@H]2C(N)=O)no1`?
**A.** % Inhibition: -7%; Z score: 0.68

**Q.** `CCCOc1ccc(-c2nc(C(=O)NCCc3ccccn3)cs2)c(Cl)c1` was tested. Which “% Inhibition” value did it give?
**A.** Its value is 8%.

**Q.** And the Z score?
**A.** The Z score was -1.16.

**Q.** With `Cc1ccccc1-c1nc2cc(NS(=O)(=O)c3ccccc3)ccc2o1` as the molecule, how does the “% Inhibition” value read?
**A.** Its value is 36%.

**Q.** What about the Z score of the same molecule?
**A.** The Z score was -0.71.

**Q.** Which results are given for `CC(NC(=O)NC1CCN(CC2CCCC2)C1)C1CCCO1` (configuration not stated)?
**A.** % Inhibition: -10%; Z score: 1.94

**Q.** `NC(=O)[C@@H]1CCCN1C(=O)c1cc2cc(Br)ccc2o1` was tested. Which “% Inhibition” value did it give?
**A.** Its value is 4%.

**Q.** And the Z score?
**A.** The Z score was -0.55.

**Q.** With `Cc1nc(-c2ccc(NS(=O)(=O)c3cnc(C4CC4)s3)cc2)co1` as the molecule, how does the “% Inhibition” value read?
**A.** The value was -4%.

**Q.** What about the Z score of the same molecule?
**A.** Its Z score is 0.51.

**Q.** For `O=C(COCC(F)(F)C(F)F)NCCn1cc(Cl)cn1`, which “% Inhibition” value is on record?
**A.** Its value is -6%.

**Q.** And the Z score?
**A.** Its Z score is 1.11.

**Q.** With `COc1cc(NC(=O)CCS(=O)(=O)c2ccc3c(c2)CC(=O)N3C)cc(OC)c1OC` as the molecule, how does the “% Inhibition” value read?
**A.** Its value is -11%.

**Q.** What about the Z score of the same molecule?
**A.** The Z score was 1.4.

**Q.** How did the “% Inhibition” value turn out when `COc1ccsc1C(=O)N[C@@H]1CCC(=O)N[C@H]1C(C)(C)C` was run?
**A.** Its value is -4%.

**Q.** And the Z score?
**A.** Its Z score is 0.61.

**Q.** How did the “% Inhibition” value turn out when `COc1ccc2c(c1)CN(C(=O)Nc1ccnc(C(=O)N3CCN(C)CC3)c1)C2` was run?
**A.** The value was 7%.

**Q.** What about the Z score of the same molecule?
**A.** The Z score was -0.87.

**Q.** Which results are given for `COc1ccc([C@H](CNC(=O)c2cc(OC)c(OC)c(OC)c2)N2CCCCC2)cc1`?
**A.** % Inhibition: -9%; Z score: 1.16

**Q.** What does the source list for `Cc1ncsc1CNC(=O)N1CCC[C@H](CN2CCOCC2)C1`?
**A.** % Inhibition: -11%; Z score: 1.41

**Q.** `CCC=CCCNc1cn(C)nc1-c1cnn(C)c1` was tested. Which “% Inhibition” value did it give?
**A.** Its value is -17%.

**Q.** And the Z score?
**A.** The Z score was 2.27.

**Q.** `Cc1nn(C(C)C)c(C)c1CN(C)c1cc(C#N)ccn1` was tested. Which “% Inhibition” value did it give?
**A.** Its value is -14%.

**Q.** And the Z score?
**A.** Its Z score is 2.16.

**Q.** Which results are given for `C[C@@H](CN(C)Cc1cc(CN(C)C)cs1)N1CCOCC1`?
**A.** % Inhibition: -4%; Z score: 0.73

**Q.** Which “% Inhibition” value does the source give for `CCc1nc(C)ccc1OCc1nsc(N(C)C)n1` here?
**A.** The value was -1%.

**Q.** What about the Z score of the same molecule?
**A.** Its Z score is 0.18.

**Q.** With `CC1CC(C)CN(C(=O)CN2CCCC2c2cccs2)C1` (configuration not stated) as the molecule, how does the “% Inhibition” value read?
**A.** The value was -7%.

**Q.** What about the Z score of the same molecule?
**A.** Its Z score is 0.87.

**Q.** What does the source list for `N#Cc1cc(N)c(N)c(Br)c1`?
**A.** % Inhibition: -41%; Z score: 4.84

**Q.** Which “% Inhibition” value does the source give for `Cc1ccc(NC(=O)C2CCN(S(=O)(=O)c3c(C)[nH]c(C)c3C(=O)N3CCCC3)CC2)cc1` here?
**A.** Its value is -8%.

**Q.** And the Z score?
**A.** Its Z score is 0.78.
